Patent publication US20250018037A1 (SEOUL NATIONAL UNIVERSITY R AND DB FOUNDATION, published 2025)

Molecular target: T1, CD40-hFc protein (Acro Biosystems, #CD0-H5253) (UniProt P25942 fragment)
T1 construct: Bought protein
Assay: SPR (Biacore 8K): CD40-hFc captured on immobilized anti-human Fc IgG, scFv injected in 2-fold dilutions (6 curves)
Source text: Since the murine anti-His antibody had decreased binding affinity against 6×His peptide after humanization, affinity maturation was further performed to increase it and chicken anti-CD40 antibody (2B1) was only humanized. Serial dilution antibodies at 6 concentrations were used to characterize the kinetics of antibody-antigen binding by SPR. […] So, there was not affinity loss against their antigen after humanization (FIG. 22B).
A Biacore 8K SPR system (Cytiva) equipped with CM5 sensor chip (Cytiva) was used to generate binding kinetic rate and affinity constants. To prepare the capture surfaces for anti-His antibodies, streptavidin was immobilized, followed by biotin conjugated 6×His peptide was captured. The antibodies were 2-fold serial diluted with 1×PBS, then injected at a flow rate of 30 μL/min for 3 minutes, allowing 10 minutes dissociation phase. The surface was regenerated using 10 mM glycine, pH 1.5. The kinetics were analyzed using Biacore 8K evaluation software, version 1.0 (Cytiva). In case of anti-CD40 antibodies, anti-human Fc IgG (Jackson ImmunoResearch) was immobilized, and then CD40-hFc protein (Acro Biosystems, #CD0-H5253) was captured. The antibodies were 2-fold serial diluted with HBS-EP+ buffer (10 mm HEPES, 150 mm sodium chloride, 3 mm EDTA, 0.05% Polysorbate 20), then injected at a flow rate of 30 μL/min for 4 minutes, allowing >15 minutes dissociation phase.

T1 sequence (P25942 21-193 limits assumed): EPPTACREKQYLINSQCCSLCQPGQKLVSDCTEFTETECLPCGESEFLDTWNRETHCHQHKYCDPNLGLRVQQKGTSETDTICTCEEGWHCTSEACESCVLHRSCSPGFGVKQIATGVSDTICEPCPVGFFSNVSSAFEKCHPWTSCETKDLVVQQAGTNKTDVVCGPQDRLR

B1: Humanized anti-CD40 scFv (2B1 clone) (scFv)
scFv: AIQLTQSPSSLSASVGDRVTITCSGGDSYAGSYYYGWYQQKPGKAPKTLIYYNDKRPSGVPSRFSGSTSGTDSTLTISSLQPEDFATYYCGSIDTSSGTGIFGQGTKLEIKGQSSRSSGGGGSSGGGGSEVQLLESGGGLVQPGGSLRLSCAASGFTFSSYQMFWVRQAPGKGLEYVSEISGSGLSTWYAP[about 20 residues not listed]MNSLRAEDTAVYYCAKAAGSCGVGTCAGGIVDAIDAWGQGTTVTVSS
notes: also called hu2B1; humanized anti-hCD40
Kd: 61 pM | koff: 1.13e-05 s⁻¹ | kon: 185000 M⁻¹ s⁻¹
